Assay results reported in PubChem BioAssay AID1347430 (National Center for Advancing Translational Sciences (NCATS), 2020).
About 130 (0.14%) of roughly 91,000 compounds were called active. Inconclusive results, whose numbers are uncertain, are shown with a selection of clear calls. Calls come from the whole dose curve; as a rule, active = well fitted inhibition curve with a large enough effect; inconclusive = small, poorly fitted or top-dose-only effect; inactive = flat fitted curve, though single readings scatter. Potencies of inconclusive entries are doubtful fits and often do not repeat.

test system: Uracil-DNA glycosylase; assay: Primary qHTS assay for inhibitors of Activation Induced Cytidine Deaminase (AID): UDG Counterscreen signal; conditions: FRET deamination/UDG coupled assay, UDG read, 4 h; series mostly up to 115 µM; note: nearly all actives have a fitted effect of over 65% in size
Potency is the fitted concentration of half-maximal effect; tags give direction and shape of the fitted curve.

SMILES | Potency
C=Cc1ccc(Cn2c(=O)n(-c3cccc(Cl)c3)c(=O)c3c4c(sc32)CN(C(C)=O)CC4)cc1 | active: 79.4 µM
O=C(Nc1nccs1)c1cc(-c2ccc(F)cc2)nc2ccccc12 | inconclusive: 79.4 µM [inhibitor, single point]
Cc1ccc(S(=O)(=O)c2nnn3c2nc(N2CCOCC2)c2sccc23)cc1C | inconclusive: 89.1 µM [inhibitor, single point]
O=C(NCc1ccco1)c1nn(Cc2ccccc2)c(=O)c2ccccc12 | inconclusive: 100 µM [inhibitor, single point]
Cc1ccc(CNC(=O)c2cccc(-c3cnc4ccccc4c3)c2)cc1 | inconclusive: 89.1 µM [inhibitor, partial curve, poor fit]
CCc1ccc(CN(Cc2cn[nH]c2-c2ccc(OC)cc2)C(=O)Nc2ccc(Br)cc2)cc1 | inconclusive: 89.1 µM [inhibitor, single point]
COc1ccc(-c2csc(-c3c(N)c(C(=O)c4ccccc4)n4ccccc34)n2)cc1OC | inconclusive: 89.1 µM [inhibitor, partial curve]
CN(CC(=O)Nc1ccc(F)cc1)Cc1nc2ccccc2c(=O)[nH]1 | inactive
COc1ccc(C(=O)/C(C#N)=C\c2cc(Br)c(O)c(OC)c2)cc1 | inactive
CCN(Cc1ccccc1)C(=O)Cn1c(=O)n(-c2cccc(C)c2)c(=O)c2c1c1cc(OC)ccc1n2C | inconclusive: 89.1 µM [inhibitor, single point]
CNc1nc2c(c(=O)n(C)c(=O)n2C)n1CC(O)COc1ccc(OC)cc1 (configuration not stated) | inconclusive: 100 µM [inhibitor, partial curve, poor fit]
Cc1c(Cl)cccc1NC(=O)CCN1CCN(Cc2cccc3ccccc23)CC1 | inconclusive: 70.8 µM [inhibitor, single point]
COc1ccccc1N1CCN(C(=O)c2ccc(Nc3nc4ccccc4n4nnnc34)cc2)CC1 | inconclusive: 2.82 µM [inhibitor, full curve, poor fit]
Cc1c(C(=O)Nc2cccc(-c3nc4ccccc4s3)c2)oc2ccc(F)cc12 | inconclusive: 89.1 µM [inhibitor, single point]
COc1ccc(-c2noc(CSc3nnc(-c4ccc(Cl)cc4)n3C)n2)cc1OC | inconclusive: 44.7 µM [inhibitor, partial curve, poor fit]
CCOC(=O)c1cnc2c(C(F)(F)F)cccc2c1Nc1cccc(C(=O)OC)c1 | inconclusive: 79.4 µM [inhibitor, partial curve, poor fit]
COc1ccccc1Nc1c2c(nc3ccc(NC(=O)c4cccc(F)c4)cc13)CCCC2 | inconclusive: 89.1 µM [inhibitor, partial curve, poor fit]
CCOC(=O)c1c(N)n(-c2cccc(C)c2C)c2nc3ccccc3nc12 | inconclusive: 100 µM [inhibitor, single point]
COc1cc(/C=C(\C#N)C(=O)Nc2nnc(C(F)(F)F)s2)ccc1OCc1ccc(C(F)(F)F)cc1C(F)(F)F | inactive
O=C(COc1cc(OCC(=O)N2CCNC2=O)c(Cl)cc1Cl)N1CCNC1=O | inactive
COc1cc(CN(C(=O)COc2ccc(Cl)c(C)c2)c2ccccn2)cc(OC)c1OC | inconclusive: 100 µM [inhibitor, single point]
Cc1ccc2nc(-c3ccc(Cl)c(NC(=O)c4ccc(Br)o4)c3)oc2c1 | inconclusive: 79.4 µM [inhibitor, partial curve, poor fit]
O=C(COCc1cc(-c2ccc3c(c2)OCO3)on1)NCc1ccc(F)cc1 | inconclusive: 89.1 µM [inhibitor, single point]

SMILES | Potency
CCc1ccc2c(c1)NC(c1cccnc1)=NC(c1ccc(C(C)(C)C)cc1)=N2 | inconclusive: 35.5 µM [inhibitor, full curve, poor fit]
Fc1ccc(-c2csc(NCc3ccco3)n2)cc1F | inactive
CC(=O)N1N=C(c2ccc(C)cc2)CC1c1cn(-c2ccccc2)nc1-c1cccs1 (configuration not stated) | inactive
COc1ccc2cc(C(C)C(=O)NC3CCCCC3)ccc2c1 (configuration not stated) | inactive
Cc1cc(C)c(Cn2c(C(O)c3ccccc3)nc3ccccc32)c(C)c1 (configuration not stated) | inconclusive: 39.8 µM [inhibitor, single point]
COc1cc(-c2nnc(SCCOc3ccc(C)c(Cl)c3)o2)cc(OC)c1OC | inconclusive: 89.1 µM [inhibitor, single point]
CCSc1ncc(Cl)c(C(=O)Nc2c(C(=O)c3ccccc3)oc3ccccc23)n1 | inconclusive: 79.4 µM [inhibitor, partial curve, poor fit]
Cc1cnc2c(c1SCCN1CCOCC1)c(=O)n(C)c(=O)n2C | inconclusive: 89.1 µM [inhibitor, single point]
COc1cc(/C=C2\NC(=O)NC2=O)cc(Br)c1OCC(=O)O | inactive
Cc1ccc(-c2nc(Cn3c(=O)cc(-c4ccccc4)c4c(C)nn(C)c43)c(C)o2)cc1 | inconclusive: 79.4 µM [inhibitor, single point]
O=C(CSc1nnc(-c2ccc([N+](=O)[O-])cc2)o1)Nc1ccccc1 | inconclusive: 79.4 µM [inhibitor, partial curve]
O=C(CSc1ncnc2sc3c(c12)CCC3)N1CCCc2ccccc21 | inactive
CCOCCCNCc1sccc1C | inactive
Cc1cc(OCc2coc(-c3ccccc3)n2)ccc1Cl | inactive
CCOc1ccc(N2CC(NC(=O)CC)CC2=O)cc1 (configuration not stated) | inconclusive: 100 µM [inhibitor, single point]
COc1ccc(-c2cn3cccnc3n2)cc1NC(=O)c1cc(C)cc(C)c1 | inconclusive: 39.8 µM [inhibitor, single point]
CCn1c(C(=O)N2CCCC(C(=O)N3CCN(c4cc(C)ccc4C)CC3)C2)cc2sccc21 (configuration not stated) | inconclusive: 56.2 µM [inhibitor, partial curve, poor fit]
COc1ccc(C)cc1NS(=O)(=O)c1cc2c3c(c1)CC(=O)N3CCC2 | inconclusive: 89.1 µM [inhibitor, single point]
CCCCCOc1nc2ccccc2nc1NS(=O)(=O)c1ccccc1 | inconclusive: 89.1 µM [inhibitor, single point]
COc1ccccc1N1CCN(C(=O)c2cc(-c3ccc(F)cc3)on2)CC1 | inconclusive: 89.1 µM [inhibitor, single point]
CCOc1ccc(NC(=O)CCS(=O)(=O)c2cccc3nonc23)cc1 | inconclusive: 89.1 µM [inhibitor, single point]
CCc1ccccc1N(C(C)=O)c1nc(COc2ccc(Cl)cc2C(N)=O)cs1 | inactive
Cc1cccc(-c2noc(-c3ccc(N4CCN(C)CC4)c([N+](=O)[O-])c3)n2)c1 | inconclusive: 35.5 µM [inhibitor, partial curve, poor fit]

SMILES | Potency
CCOC(=O)c1cc2cc(NC(=O)C3CC(=O)Nc4ccccc43)ccc2s1 (configuration not stated) | inactive
CC(C)Sc1ncc(Cl)c(C(=O)Nc2ccc(S(=O)(=O)N(C)c3ccccc3)cc2)n1 | inconclusive: 89.1 µM [inhibitor, single point]
CCCCc1c(C)c2ccc(OC)c(/C(C)=N/O)c2oc1=O | inactive
COCCn1c(CN2CCC(C(N)=O)CC2)nc2c1c(=O)n(C)c(=O)n2C | inactive
CCN(Cc1ccccc1)c1ncnc2c1cnn2-c1ccc(F)cc1 | inconclusive: 89.1 µM [inhibitor, partial curve, poor fit]
CNC(=O)NC(=O)Cn1nnc(-c2ccc(F)c(C)c2)n1 | inactive
COC(=O)CC(N)c1ccc(C)cc1C (configuration not stated) | inactive
COc1ccccc1CNC(=O)C(=O)NCC(c1ccco1)S(=O)(=O)c1ccc(C)cc1 (configuration not stated) | inconclusive: 89.1 µM [inhibitor, single point]
COc1ccc(-c2nc(C(=O)Nc3cccc(C(C)=O)c3)nn2-c2ccccc2Cl)cc1 | inconclusive: 100 µM [inhibitor, single point]
C/C(Cc1ccccc1)=N\NC(=O)C(C)C | inactive
COCCCNC(=O)c1cc2c(-c3cccc(OC)c3)nn(C)c2s1 | inactive
COc1cc(NC(=O)CCN2CCN(CCO)CC2)cc(OC)c1 | inconclusive: 89.1 µM [inhibitor, single point]
Cc1cc(NC(=O)C(C)C)cc(-c2nc3ccccc3o2)c1O | inconclusive: 100 µM [inhibitor, single point]
CCc1ccc(S(=O)(=O)c2cn(Cc3ccccc3)c3cc(N4CCCC4)c(F)cc3c2=O)cc1 | inconclusive: 100 µM [inhibitor, single point]
CN(Cc1ccccc1)C(=O)CSc1nnc(-c2cccc(Cl)c2)o1 | inconclusive: 56.2 µM [inhibitor, partial curve, poor fit]
Cc1ccc(CN(C(=O)COc2ccccc2Cl)c2ccccn2)o1 | inconclusive: 100 µM [inhibitor, single point]
O=C(COC(=O)c1ccc(N2CCCC2=O)cc1)c1ccc2c(c1)CCCC2 | inactive
CN1C(=S)SC(C)(C)C1/[N+]([O-])=C/c1ccco1 (configuration not stated) | inactive
Fc1ccccc1-c1nc(N2CCN(c3cccc(Cl)c3)CC2)c2ccccc2n1 | inconclusive: 89.1 µM [inhibitor, partial curve, poor fit]
COCCNC(=O)Cn1ccc2cc(S(=O)(=O)N3CCCCCC3)ccc21 | inconclusive: 39.8 µM [inhibitor, single point]
Cc1cc2c(cc1S(=O)(=O)Nc1cccc(C#N)c1)OCC(=O)N2 | inconclusive: 89.1 µM [inhibitor, single point]
